Results as given in the supplement of paper PMC11880418.
Where a name gives a salt, the structure may show the parent alone. The list shows a part of the results. The data scatter; read single values as rough.

Each compound was assayed on MKN45 (assay: ALDHbr (CSC) cell proportion score relative to DMSO vehicle (ratio to DMSO); breast (SUM159) / gastric (MKN45) / pancreatic (PANC1) / colon cancer lines; ALDHbr cells have high ALDH activity and are rich in cancer stem cells (CSC); higher = more CSC (ALDHbr) cells remaining). Conditions: 10 µM; 72 h.
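Note: High-content imaging of ALDEFLUOR-stained cells with Hoechst-labelled nuclei in 384-well plates, triplicate wells, scored as Z-score against 0.1% DMSO vehicle, negative meaning fewer ALDHbr cells.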

Row | SMILES | ALDHbr
1 | CC[C@H]1OC(=O)[C@H](C)[C@@H](O[C@H]2C[C@@](C)(OC)[C@@H](O)[C@H](C)O2)[C@H](C)[C@@H](O[C@@H]2O[C@H](C)C[C@H](N(C)C)[C@H]2O)[C@](C)(OC)C[C@@H](C)C(=O)[C@H](C)[C@@H](O)[C@]1(C)O [Clarithromycin] | 1.04
2 | C#C[C@]1(O)CC[C@H]2[C@@H]3CCC4=Cc5oncc5C[C@]4(C)[C@H]3CC[C@@]21C [Danazol] | 0.872
3 | CCOC(=O)[C@H](CCc1ccccc1)N[C@@H](C)C(=O)N1[C@H](C(=O)O)C[C@@H]2CCC[C@@H]21 [Ramipril] | 0.955
4 | CCCCC(CC)CN1CN(CC(CC)CCCC)CC(C)(N)C1 (centres undefined) [Hexetidine] | 0.915
5 | CCC(=O)O[C@]1(C(=O)CCl)[C@@H](C)C[C@H]2[C@@H]3CCC4=CC(=O)C=C[C@]4(C)[C@@]3(F)[C@@H](O)C[C@@]21C [Clobetasol propionate] | 0.855
6 | CC(=O)O[C@H]1C[C@@]2(C)[C@@H](C[C@@H](O)[C@H]3[C@@]4(C)CC[C@@H](O)[C@@H](C)[C@@H]4CC[C@@]32C)/C1=C(\CCC=C(C)C)C(=O)O [Fusidic acid sodium salt] | 0.886
7 | CNC[C@H](O)[C@@H](O)[C@H](O)[C@H](O)CO [Meglumine] | 0.997
8 | CCN(CC)CCNC(C(=O)OCCC(C)C)c1ccccc1 (centres undefined) [Camylofine chlorhydrate] | 0.938
9 | O=C1[C@H]2CCCC[C@H]2C(=O)N1CCCCN1CCN(c2nsc3ccccc23)CC1 [Perospirone] | 0.307
10 | N=C(N)NC(=O)Cc1c(Cl)cccc1Cl [Guanfacine hydrochloride] | 0.807
11 | CCc1cc(C(N)=S)ccn1 [Ethionamide] | 1
12 | C[C@@H]1C[C@H]2[C@@H]3C[C@H](F)C4=CC(=O)C=C[C@]4(C)[C@@]3(F)[C@@H](O)C[C@]2(C)[C@@]1(O)C(=O)CO [Flumethasone] | 0.959
13 | CC(CCc1ccccc1)NCC(O)c1ccc(O)c(C(N)=O)c1 (centres undefined) [Labetalol hydrochloride] | 1.24
14 | CCn1cc(C(=O)O)c(=O)c2cnc(N3CCNCC3)nc21 [Pipemidic acid] | 1.12
15 | Cc1noc(NS(=O)(=O)c2ccc(N)cc2)c1C [Sulfisoxazole] | 0.986
16 | CC1CCc2c(N3CCC(O)CC3)c(F)cc3c(=O)c(C(=O)O)cn1c23 (centres undefined) [Nadifloxacin] | 1.01
17 | CC(=O)OCC(=O)[C@@]12OC(C)(C)O[C@@H]1C[C@H]1[C@@H]3C[C@H](F)C4=CC(=O)C=C[C@]4(C)[C@@]3(F)[C@@H](O)C[C@@]12C [Fluocinonide] | 0.943
18 | CCN[C@H]1CN(CCCOC)S(=O)(=O)c2sc(S(N)(=O)=O)cc21 [Brinzolamide] | 1.12
19 | NC(=O)OCC(COC(N)=O)c1ccccc1 [Felbamate] | 1.1
20 | CCCC(=O)Nc1ncnc2c1ncn2[C@@H]1O[C@@H]2COP(=O)(O)O[C@H]2[C@H]1OC(=O)CCC [Bucladesine sodium salt] | 0.829

Row | SMILES | ALDHbr
21 | C/C(=C\C(=O)OCCCCCCCCC(=O)O)C[C@@H]1OC[C@H](C[C@@H]2O[C@H]2[C@@H](C)[C@H](C)O)[C@@H](O)[C@H]1O [Mupirocin] | 1.04
22 | CC#C[C@]1(O)CC[C@H]2[C@@H]3CCC4=CC(=O)CCC4=C3[C@@H](c3ccc(N(C)C)cc3)C[C@@]21C [Mifepristone] | 0.621
23 | CC(C)NCC(O)c1ccc(NS(C)(=O)=O)cc1 (centres undefined) [Sotalol hydrochloride] | 1.02
24 | C[C@@H]1CN(c2c(F)c(N)c3c(=O)c(C(=O)O)cn(C4CC4)c3c2F)C[C@H](C)N1 [Sparfloxacin] | 1.07
25 | CN1CCC(=C2c3ccccc3CCc3sccc32)CC1 [Pizotifen malate] | 1.42
26 | CC1=C(/C=C/C(C)=C/C=C/C(C)=C/C(=O)O)C(C)(C)CCC1 [Retinoic acid] | 0.875
27 | C[C@H](CS)C(=O)N1CCC[C@H]1C(=O)O [Captopril] | 0.927
28 | CC(C)COCC(CN(Cc1ccccc1)c1ccccc1)N1CCCC1 (centres undefined) [Bepridil hydrochloride] | 0.521
29 | CCC1=C(C)CN(C(=O)NCCc2ccc(S(=O)(=O)NC(=O)N[C@H]3CC[C@H](C)CC3)cc2)C1=O [Glimepiride] | 0.814
30 | O=C(O)COCCN1CCN(C(c2ccccc2)c2ccc(Cl)cc2)CC1 (centres undefined) [Cetirizine dihydrochloride] | 1.03
31 | C[N+]1(C)CCC(OC(=O)C(O)(c2ccccc2)C2CCCC2)C1 (centres undefined) [Glycopyrrolate] | 0.963
32 | CN1CCCN=C1/C=C/c1cccc(O)c1 [Oxantel pamoate] | 0.981
33 | CCC1(c2ccccc2)C(=O)NCNC1=O [Primidone] | 0.885
34 | N[C@H]1CONC1=O [(S)-(-)-Cycloserine] | 1.12
35 | Nc1nc2c(ncn2COC(CO)CO)c(=O)[nH]1 [Ganciclovir] | 1.03
36 | COc1cc(C(=O)OCCCN2CCCN(CCCOC(=O)c3cc(OC)c(OC)c(OC)c3)CC2)cc(OC)c1OC [Dilazep dihydrochloride] | 1.58
37 | O=C1OCCN1/N=C/c1ccc([N+](=O)[O-])o1 [Furazolidone] | 0.399
38 | Clc1cc(Cl)c(OCC#CI)cc1Cl [Haloprogin] | 0.26
39 | CC[C@]12CCCN3CCc4c(n(c5ccccc45)[C@@](O)(C(=O)OC)C1)[C@@H]32 [Vincamine] | 0.964
